B1: PhoQ; a variant is named by its letters at X, in order, P23837 (parent)
chain: MKKLLRLFFPLSLRVRFLLATAAVVLVLSLAYGMVALIGYSVSFDKTTFRLLRGESNLFYTLAKWENNKLHVELPENIDKQSPTMTLIYDENGQLLWAQRDVPWLMKMIQPDWLKSNGFHEIEADVNDTSLLLSGDHSIQQQLQEVREDDDDAEMTHSVAVNVYPATSRMPKLTIVVVDTIPVELKSSYMVWSWFIYVLSANLLLVIPLLWVAAWWSLRPIEALAKEVRELEEHNRELLNPATTRELTSLVRNLNRLLKSERERYDKYRTTLTDLTHSLKTPLXXLQXXLRSLRSEKMSVSDAEPVMLEQISRISQQIGYYLHRASMRGGTLLSRELHPVAPLLDNLTSALNKVYQRKGVNISLDISPEISFVGEQNDFVEVMGNVLDNACKYCLEFVEISARQTDEHLYIVVEDDGPGIPLSKREVIFDRGQRVDTLRPGQGVGLAVAREITEQYEGKIVAGESMLGGARMEVIFGRQHSAPKDE

The list shows a part of the results. Where only a bound is given, the exact number is not on record here.

The variants in the test derive from B1. Kind of test: enrichment ratio after two sorts for PhoP signalling (ratio (wild type AVST 3.29)); higher = more functional. The following applies: with PhoP (E. coli).
As to DFWH, the enrichment ratio was at most 0.25.
The result for TVQG reads 14.6; that for EYTV, at most 0.25.
The result for WSTA reads at most 0.25.
Regarding QAWS, the enrichment ratio came to 18.4.
For DGYT, the enrichment ratio was at most 0.25.
Consider ISHS, for which the enrichment ratio was at most 0.25.
MRPN: the enrichment ratio was at most 0.25.
HRFV: the enrichment ratio was at most 0.25.
For VCPS, the enrichment ratio is at most 0.25.
As to APAS, the enrichment ratio is at most 0.25.
In the case of ITVT, the enrichment ratio is at most 0.25.
On to FQCG, for which the enrichment ratio was determined as 1.7.
With WSFG, the enrichment ratio is at most 0.25.
For GLLG, the enrichment ratio came to 3.41.
Take WMVL: the enrichment ratio was at most 0.25.
In the case of LATI, the enrichment ratio was at most 0.25.
For the variant LEHG, the enrichment ratio was at most 0.25.
In the case of IHFT, the enrichment ratio is at most 0.25.
Take TSSD: the enrichment ratio was at most 0.25.
Take LANQ: the enrichment ratio is at most 0.25.
With GVTS, the enrichment ratio is at most 0.25.
For the variant FNEY, the enrichment ratio is at most 0.25.
In the case of LMRA, the enrichment ratio is at most 0.25.
On to REYY, for which the enrichment ratio is at most 0.25.
The result for SSIG reads 11.5.
Consider QPYC, for which the enrichment ratio is at most 0.25.
Regarding FAQF, the enrichment ratio was at most 0.25.
The result for KRID reads at most 0.25.
Regarding PQMK, the enrichment ratio was at most 0.25.
The result for QVRM reads at most 0.25.
With KLWH, the enrichment ratio was at most 0.25.
Consider LQMP, for which the enrichment ratio was at most 0.25.
With SYDA, the enrichment ratio was at most 0.25.
With PEGW, the enrichment ratio was at most 0.25.
Consider YSRG, for which the enrichment ratio was at most 0.25.
Consider VHTG, for which the enrichment ratio was at most 0.25.
Regarding ENKH, the enrichment ratio was at most 0.25.
As to ELDT, the enrichment ratio was at most 0.25.
On to WRPP, for which the enrichment ratio was at most 0.25.
The result for TDQE reads at most 0.25; that for WTRK, at most 0.25; that for WRHD, at most 0.25.
HGSC: the enrichment ratio was at most 0.25.
YFCC: the enrichment ratio was at most 0.25.
With DMDN, the enrichment ratio is at most 0.25.
On to NTCN, for which the enrichment ratio was at most 0.25.
IWAP: the enrichment ratio was at most 0.25.
In the case of VQMY, the enrichment ratio was at most 0.25.
Take WCQS: the enrichment ratio is at most 0.25.
The result for MGAW reads at most 0.25; that for NEVY, at most 0.25.
The result for YHEA reads at most 0.25; that for STCV, 6.12.
Consider ASPF, for which the enrichment ratio amounted to 0.281.
With MHHW, the enrichment ratio is at most 0.25.
On to KKAT, for which the enrichment ratio was at most 0.25.
The result for YHIE reads at most 0.25; that for IGTN, at most 0.25; that for YTQS, at most 0.25.
With ACTF, the enrichment ratio is 7.93.
With LCVM, the enrichment ratio is at most 0.25.
On to HEEF, for which the enrichment ratio is at most 0.25.
Take MADW: the enrichment ratio was at most 0.25.
QMLE: the enrichment ratio is at most 0.25.
The result for SHPD reads at most 0.25.
GTCN: the enrichment ratio was 3.53.
The result for WSRT reads at most 0.25; that for SWYI, at most 0.25; that for DFVQ, at most 0.25.
Regarding EATD, the enrichment ratio was at most 0.25.
The result for DFFV reads at most 0.25.
For MYGE, the enrichment ratio is at most 0.25.
For RWEI, the enrichment ratio was at most 0.25.
For the variant ACDV, the enrichment ratio is at most 0.25.
The result for MMDG reads at most 0.25; that for FSNV, at most 0.25.
With DMFP, the enrichment ratio was at most 0.25.
For the variant WMSF, the enrichment ratio was at most 0.25.
RHEL: the enrichment ratio was at most 0.25.
Turning to MNLA, the enrichment ratio was at most 0.25.
YRVI: the enrichment ratio is at most 0.25.
FGWG: the enrichment ratio was at most 0.25.
Take HYFI: the enrichment ratio is at most 0.25.
ALGS: the enrichment ratio is at most 0.25.
The result for QSDT reads 1.97; that for LACP, at most 0.25.
For the variant TTAQ, the enrichment ratio was 8.86.
For the variant LEWP, the enrichment ratio is at most 0.25.
As for RRQF, the enrichment ratio was at most 0.25.
The result for QMVD reads at most 0.25.
The result for NTHQ reads at most 0.25; that for EYAG, at most 0.25; that for GASV, at most 0.25.
With TQLP, the enrichment ratio was at most 0.25.
The result for EIAQ reads at most 0.25; that for HAWL, at most 0.25.
With TGGI, the enrichment ratio was 3.92.
Take QRGF: the enrichment ratio is at most 0.25.
SIVK: the enrichment ratio is 4.61.
With TGGG, the enrichment ratio worked out at 1.15.
In the case of YFNV, the enrichment ratio is at most 0.25.
On to AECR, for which the enrichment ratio was at most 0.25.
For HHKH, the enrichment ratio is at most 0.25.
The result for WWWK reads at most 0.25.
The result for WNGM reads at most 0.25.
In the case of DDKH, the enrichment ratio was at most 0.25.
The result for ETPQ reads at most 0.25; that for RPVY, at most 0.25.
The result for VMRE reads 2.09.
Take MRLT: the enrichment ratio was at most 0.25.
Consider PTAV, for which the enrichment ratio is at most 0.25.
For the variant YSHQ, the enrichment ratio worked out at 0.532.
On to CAIL, for which the enrichment ratio was at most 0.25.
In the case of NCLD, the enrichment ratio was at most 0.25.
REMF: the enrichment ratio is at most 0.25.
Regarding HKAY, the enrichment ratio is at most 0.25.
Turning to NTKI, the enrichment ratio was at most 0.25.
Consider EWWQ, for which the enrichment ratio is at most 0.25.
GGGW: the enrichment ratio was at most 0.25.
For the variant FNKG, the enrichment ratio was at most 0.25.
WDCR: the enrichment ratio is at most 0.25.
Take HQGM: the enrichment ratio is at most 0.25.
Regarding IHQW, the enrichment ratio is at most 0.25.
In the case of PYIN, the enrichment ratio is at most 0.25.
Regarding KVMK, the enrichment ratio is at most 0.25.
Turning to SAKP, the enrichment ratio is at most 0.25.
As to VVWQ, the enrichment ratio was at most 0.25.
WKWP: the enrichment ratio is at most 0.25.
Regarding QWYL, the enrichment ratio is at most 0.25.
The result for RRVI reads at most 0.25; that for RIFE, at most 0.25.
Turning to PECQ, the enrichment ratio is at most 0.25.
As to VVKY, the enrichment ratio was at most 0.25.
The result for SNQI reads 12.5; that for AGFP, at most 0.25.
Turning to LRAY, the enrichment ratio was at most 0.25.
NWVP: the enrichment ratio is at most 0.25.
Consider GFRY, for which the enrichment ratio was at most 0.25.
Take MAHN: the enrichment ratio was at most 0.25.
The result for NKYA reads at most 0.25; that for SHTG, at most 0.25; that for ARTT, at most 0.25.
As for MKAH, the enrichment ratio is at most 0.25.
On to APCC, for which the enrichment ratio is at most 0.25.
For LCTS, the enrichment ratio is at most 0.25.
QTPN: the enrichment ratio is at most 0.25.
With GRMK, the enrichment ratio was at most 0.25.
As to QPHW, the enrichment ratio was at most 0.25.
Take NVMF: the enrichment ratio is at most 0.25.
The result for GKSE reads at most 0.25; that for EANP, at most 0.25.
As to LWQR, the enrichment ratio was at most 0.25.
